This note sets out measurements from patent WO2009089998A1 (dated 2009).

The target of the assay is T1, recombinant domain A2 of human tenascin-C (human, UniProt P24821 1161-1255, biotinylated (EZ-link sulfo-NHS-SS-biotin) for ELISA and BIAcore).
T1 construct: Expressed in E. coli TG-1 from pQE12 and purified on Ni-NTA; also called A2 domain; recombinant antigen A2; not shown: C-terminal His-tag and residues from the pQE12 vector
T1 sequence: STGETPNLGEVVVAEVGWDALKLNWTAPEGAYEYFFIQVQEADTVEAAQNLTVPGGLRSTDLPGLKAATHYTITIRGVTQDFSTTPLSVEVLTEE
As to the kind of experiment: SPR (BIAcore 3000), biotinylated A2 domain on streptavidin chip, monomeric scFv injected.

B1: scFv C12 (scFv)
scFv: [sequence of about 100 residues omitted]QARRSFDYWGQGTLVTVSSGGGGSGGGGSGGGGSSELTQDPAVSVALGQTVRITCQGDSLRSYYASWYQQKPGQAPVLVIYGKNNRPSGIPDRFSGSSSGNTASLTITGAQAEDEADYYCNSSGISMSPVVFGGGTKLTVLGAAAEQKLISEEDLNGAA
notes: Human scFv from the ETH2-Gold library, with DP47 heavy chain and DPL16 light chain; It was purified on protein A and injected as monomer in BIAcore; also called C12 antibody; anti-A2 antibody C12
With B1, the Kd (in general, the equilibrium constant for the complex coming apart) is ~1180 nM.
